{
  "source": "the supplement of paper PMC8728848",
  "binders": {"B1": {"name": "Pa IMPa (Pseudomonas aeruginosa), Q9I5W4 (protein)", "chain": "MSLSTTAFPSLQGENMSRSPIPRHRALLAGFCLAGALSAQAATQEEILDAALVSGDSSQLTDSHLVALRLQQQVERIRQTRTQLLDGLYQNLSQAYDPGAASMWVLPANPDNTLPFLIGDKGRVLASLSLEAGGRGLAYGTNVLTQLSGTNAAHAPLLKRAVQWLVNGDPGAATAKDFKVSVVGVDKTAALNGLKSAGLQPADAACNALTDASCASTSKLLVLGNGASAASLSATVRARLQAGLPILFVHTNGWNQSSTGQQILAGLGLQEGPYGGNYWDKDRVPSSRTRTRSVELGGAYGQDPALVQQIVDGSWRTDYDWSKCTSYVGRTTCDDVPGLSDFSKRVDVLKGALDAYNQKAQNLFALPGTTSLRLWLLWADAVRQNIRYPMDKAADTARFQETFVADAIVGYVREAGAAQKELGSYAGQRQQSMPVSGSEETLTLTLPSAQGFTAIGRMAAPGKRLSIRIEDAGQASLAVGLNTQRIGSTRLWNTRQYDRPRFLKSPDIKLQANQSVALVSPYGGLLQLVYSGATPGQTVTVKVTGAASQPFLDIQPGEDSSQAIADFIQALDADKADWLEIRSGSVEVHAKVEKVRGSIDKDYGGDVQRFIRELNEVFIDDAYTLAGFAIPNQAKTPAIQQECAARGWDCDSETLHKLPGTQHINVDQYAQCGGGCSGNPYDQTWGLNPRGWGESHELGHNLQVNRLKVYGGRSGEISNQIFPLHKDWRVLREFGQNLDDTRVNYRNAYNLIVAGRAEADPLAGVYKRLWEDPGTYALNGERMAFYTQWVHYWADLKNDPLQGWDIWTLLYLHQRQVDKSDWDANKAALGYGTYAQRPGNSGDASSTDGNDNLLLGLSWLTQRDQRPTFALWGIRTSAAAQAQVAAYGFAEQPAFFYANNRTNEYSTVKLLDMSQGSPAWPFP"}},
  "test_in_all_cases": "glycan array binding signal (z-score within array); higher = stronger binding",
  "conditions_in_all_cases": "glycan notation: IUPAC condensed, linker removed",
  "key": {"Gal3S(b1-4)Glc": {"molecular_target": "Gal3S(b1-4)Glc", "outline": "(§1)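 Glycan array data came from 3228 arrays in the Consortium for Functional Glycomics database, and only arrays with an available protein sequence were kept. Glycan names were put into IUPAC-condensed notation, and columns mapping to the same glycan were averaged. The binding signal is a within-array Z-score, averaged across arrays of one protein sequence run at different concentrations or buffers and across linkers. A negative Z-score can be read as non-binding.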"}, "Gal3S(b1-4)Glc6S": {"molecular_target": "Gal3S(b1-4)Glc6S", "outline": "as §1"}, "Gal3S(b1-4)GlcNAc": {"molecular_target": "Gal3S(b1-4)GlcNAc", "outline": "as §1"}, "[1]": {"molecular_target": "Gal3S(b1-4)[Fuc(a1-3)]Glc6S", "outline": "as §1"}, "[2]": {"molecular_target": "Gal3S(b1-4)[Fuc(a1-3)]GlcNAc", "outline": "as §1"}, "[3]": {"molecular_target": "Gal3S(b1-4)[Fuc(a1-3)]GlcNAc6S", "outline": "as §1"}, "Gal3S4S(b1-4)GlcNAc": {"molecular_target": "Gal3S4S(b1-4)GlcNAc", "outline": "as §1"}, "Gal3S6S(b1-4)GlcNAc": {"molecular_target": "Gal3S6S(b1-4)GlcNAc", "outline": "as §1"}, "Gal3S6S(b1-4)GlcNAc6S": {"molecular_target": "Gal3S6S(b1-4)GlcNAc6S", "outline": "as §1"}, "Gal4S(b1-4)GlcNAc": {"molecular_target": "Gal4S(b1-4)GlcNAc", "outline": "as §1"}, "Gal4S6S(b1-4)GlcNAc": {"molecular_target": "Gal4S6S(b1-4)GlcNAc", "outline": "as §1"}, "Gal6P(b1-4)GlcNAc": {"molecular_target": "Gal6P(b1-4)GlcNAc", "outline": "as §1"}, "Gal6S(b1-3)GlcNAc": {"molecular_target": "Gal6S(b1-3)GlcNAc", "outline": "as §1"}, "Gal6S(b1-3)GlcNAc6S": {"molecular_target": "Gal6S(b1-3)GlcNAc6S", "outline": "as §1"}, "Gal6S(b1-4)Glc": {"molecular_target": "Gal6S(b1-4)Glc", "outline": "as §1"}, "Gal6S(b1-4)Glc6S": {"molecular_target": "Gal6S(b1-4)Glc6S", "outline": "as §1"}, "Gal6S(b1-4)GlcNAc": {"molecular_target": "Gal6S(b1-4)GlcNAc", "outline": "as §1"}, "Gal6S(b1-4)GlcNAc6S": {"molecular_target": "Gal6S(b1-4)GlcNAc6S", "outline": "as §1"}, "GalNAc(a1-3)Gal": {"molecular_target": "GalNAc(a1-3)Gal", "outline": "as §1"}, "GalNAc(a1-3)GalNAc": {"molecular_target": "GalNAc(a1-3)GalNAc", "outline": "as §1"}, "[4]": {"molecular_target": "GalNAc(a1-3)GalNAc(b1-3)Gal(a1-4)Gal(b1-4)Glc", "outline": "as §1"}, "[5]": {"molecular_target": "GalNAc(a1-3)GalNAc(b1-3)Gal(a1-4)Gal(b1-4)GlcNAc", "outline": "as §1"}, "GalNAc(b1-3)Gal": {"molecular_target": "GalNAc(b1-3)Gal", "outline": "as §1"}, "[6]": {"molecular_target": "GalNAc(b1-3)Gal(a1-4)Gal(b1-4)GlcNAc", "outline": "as §1"}, "[7]": {"molecular_target": "GalNAc(b1-3)Gal(a1-4)Gal(b1-4)GlcNAc(b1-3)Gal(b1-4)Glc", "outline": "as §1"}, "[8]": {"molecular_target": "GalNAc(b1-3)Gal(a1-6)Gal(b1-4)Glc", "outline": "as §1"}, "GalNAc(b1-3)GalNAc": {"molecular_target": "GalNAc(b1-3)GalNAc", "outline": "as §1"}, "GalNAc(b1-3)GlcNAc": {"molecular_target": "GalNAc(b1-3)GlcNAc", "outline": "as §1"}, "GalNAc(b1-4)Gal(b1-4)Glc": {"molecular_target": "GalNAc(b1-4)Gal(b1-4)Glc", "outline": "as §1"}, "GalNAc(b1-4)GlcNAc": {"molecular_target": "GalNAc(b1-4)GlcNAc", "outline": "as §1"}},
  "note": "The other results are listed elsewhere or left out.",
  "data": [
    {"binder": "B1", "values": [
      {"measurement": "glycan array binding signal (z-score)", "setting": "Gal3S(b1-4)Glc", "value": -0.329},
      {"measurement": "glycan array binding signal (z-score)", "setting": "Gal3S(b1-4)Glc6S", "value": -0.21},
      {"measurement": "glycan array binding signal (z-score)", "setting": "Gal3S(b1-4)GlcNAc", "value": -0.456},
      {"measurement": "glycan array binding signal (z-score)", "setting": "[1]", "value": -0.212},
      {"measurement": "glycan array binding signal (z-score)", "setting": "[2]", "value": 0.065},
      {"measurement": "glycan array binding signal (z-score)", "setting": "[3]", "value": 0.344},
      {"measurement": "glycan array binding signal (z-score)", "setting": "Gal3S4S(b1-4)GlcNAc", "value": 0.552},
      {"measurement": "glycan array binding signal (z-score)", "setting": "Gal3S6S(b1-4)GlcNAc", "value": -0.085},
      {"measurement": "glycan array binding signal (z-score)", "setting": "Gal3S6S(b1-4)GlcNAc6S", "value": 0.617},
      {"measurement": "glycan array binding signal (z-score)", "setting": "Gal4S(b1-4)GlcNAc", "value": -0.002},
      {"measurement": "glycan array binding signal (z-score)", "setting": "Gal4S6S(b1-4)GlcNAc", "value": 0.667},
      {"measurement": "glycan array binding signal (z-score)", "setting": "Gal6P(b1-4)GlcNAc", "value": -0.196},
      {"measurement": "glycan array binding signal (z-score)", "setting": "Gal6S(b1-3)GlcNAc", "value": 1.34},
      {"measurement": "glycan array binding signal (z-score)", "setting": "Gal6S(b1-3)GlcNAc6S", "value": 0.532},
      {"measurement": "glycan array binding signal (z-score)", "setting": "Gal6S(b1-4)Glc", "value": -0.194},
      {"measurement": "glycan array binding signal (z-score)", "setting": "Gal6S(b1-4)Glc6S", "value": 0.198},
      {"measurement": "glycan array binding signal (z-score)", "setting": "Gal6S(b1-4)GlcNAc", "value": 0.036},
      {"measurement": "glycan array binding signal (z-score)", "setting": "Gal6S(b1-4)GlcNAc6S", "value": 0.936},
      {"measurement": "glycan array binding signal (z-score)", "setting": "GalNAc(a1-3)Gal", "value": -0.34},
      {"measurement": "glycan array binding signal (z-score)", "setting": "GalNAc(a1-3)GalNAc", "value": -0.421},
      {"measurement": "glycan array binding signal (z-score)", "setting": "[4]", "value": -0.1},
      {"measurement": "glycan array binding signal (z-score)", "setting": "[5]", "value": -0.478},
      {"measurement": "glycan array binding signal (z-score)", "setting": "GalNAc(b1-3)Gal", "value": -0.522},
      {"measurement": "glycan array binding signal (z-score)", "setting": "[6]", "value": -0.273},
      {"measurement": "glycan array binding signal (z-score)", "setting": "[7]", "value": 0.987},
      {"measurement": "glycan array binding signal (z-score)", "setting": "[8]", "value": 0.025},
      {"measurement": "glycan array binding signal (z-score)", "setting": "GalNAc(b1-3)GalNAc", "value": -0.268},
      {"measurement": "glycan array binding signal (z-score)", "setting": "GalNAc(b1-3)GlcNAc", "value": -0.214},
      {"measurement": "glycan array binding signal (z-score)", "setting": "GalNAc(b1-4)Gal(b1-4)Glc", "value": 0.113},
      {"measurement": "glycan array binding signal (z-score)", "setting": "GalNAc(b1-4)GlcNAc", "value": -0.367}
    ]}
  ]
}
